Experimental data: the supplement of paper PMC10126150
Sequences with one replicate were seen in a single cluster, so their values are uncertain.

test system: ATP; assay: switch fluorescence ratio, 500 uM ATP over buffer (Cy3 cluster intensity, sum of 5 cycles each) (fold (ratio)); higher = stronger signal-on switching upon ATP binding; sequences stand for … in TCGTCGGCAGCGTCAGATGTGTATAAGAGACAGTTTTTTTTTTTTTTTTTTTTTTTTT…TC; conditions: aptamer strand: ATP DNA aptamer (quencher-CACCTGGGGGAGTATTGCGGAGGAAGG + anchor), 100 nM annealed; ATP concentration: 500 uM; one replicate
In short: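 The quencher-labelled ATP aptamer, at 100 nM, was annealed to Cy3-labelled switching-strand clusters on a modified Illumina MiSeq flow-cell. The clusters were imaged in selection buffer, then after 15 min with 500 uM ATP at 22 °C, and this buffer/ATP cycle ran five times with NaOH stripping and re-annealing between runs. Per-cluster fluorescence ratios, summed target-cycle over summed buffer-cycle Cy3 intensity, were averaged per switch-domain sequence. Clusters outside 100-1000 RFU were excluded.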
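Further: ATP exposure 15 min at 22 °C before imaging.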

Row | Sequence | switch fluorescence ratio
1 | AGTCCTCTAT | 0.984
2 | AGTCGAGGCC | 1.04
3 | AGTCGCACAG | 1.01
4 | AGTCGCGCTC | 0.983
5 | AGTCGCTTAG | 1.01
6 | AGTCGGAGGC | 1.08
7 | AGTCGGCCT | 0.984
8 | AGTCGGGATA | 0.968
9 | AGTCGGGTGA | 0.981
10 | AGTCGTGTTC | 1.01
11 | AGTCGTTAAG | 0.984
12 | AGTCGTTCGG | 1
13 | AGTCTACTGT | 1.02
14 | AGTCTAGGGT | 0.975
15 | AGTCTCACCG | 0.99
16 | AGTCTTAGGA | 0.996
17 | AGTCTTGCAC | 0.988
18 | AGTGAAAAGC | 0.99
19 | AGTGAAAGGG | 1
20 | AGTGAAGCTA | 0.994
21 | AGTGAATAGG | 1.05
22 | AGTGAATGCT | 0.97
23 | AGTGACCCCG | 1.04
24 | AGTGACTGCG | 1.01
25 | AGTGAGATTG | 0.991

Row | Sequence | switch fluorescence ratio
26 | AGTGAGGACA | 1.05
27 | AGTGAGTCTA | 1.01
28 | AGTGAGTGAT | 1
29 | AGTGATCTAT | 0.976
30 | AGTGATTTTT | 1.19
31 | AGTGCAAATC | 1.05
32 | AGTGCATGGC | 1.13
33 | AGTGCGCGCA | 0.945
34 | AGTGCTATTA | 1
35 | AGTGCTCGGG | 0.98
36 | AGTGCTGCTC | 1.02
37 | AGTGCTTACT | 1
38 | AGTGCTTATC | 0.981
39 | AGTGCTTGA | 0.985
40 | AGTGGATGCT | 0.896
41 | AGTGGATTTG | 0.986
42 | AGTGGCGTGC | 0.982
43 | AGTGGCTACG | 1.04
44 | AGTGGTACT | 1
45 | AGTGGTAGTG | 0.998
46 | AGTGGTGCGG | 0.917
47 | AGTGTAGGAT | 1.02
48 | AGTGTCCACC | 0.975
49 | AGTGTCGGGC | 1
50 | AGTGTCTTAA | 1.03

Row | Sequence | switch fluorescence ratio
51 | AGTGTCTTGT | 0.991
52 | AGTGTGGAGC | 0.984
53 | AGTGTGTTTG | 0.99
54 | AGTGTTCCCC | 1.02
55 | AGTGTTGGAC | 1.02
56 | AGTTAATAAG | 0.967
57 | AGTTAATGC | 1.09
58 | AGTTACATGG | 1.04
59 | AGTTACTTAA | 1.06
60 | AGTTAGACAC | 1.04
61 | AGTTAGCGGG | 0.973
62 | AGTTAGCTTT | 0.985
63 | AGTTATCTCA | 0.983
64 | AGTTATGCGG | 0.946
65 | AGTTATGTCG | 1.16
66 | AGTTCCAAAC | 0.99
67 | AGTTCCAGGC | 0.985
68 | AGTTCCCTTA | 0.993
69 | AGTTCGTCTC | 1.04
70 | AGTTCTAATC | 1.02
71 | AGTTCTCGGA | 0.965
72 | AGTTGAACGG | 1.05
73 | AGTTGAAGCC | 1.03
74 | AGTTGAAGG | 1.04
75 | AGTTGAGAAG | 0.982

Row | Sequence | switch fluorescence ratio
76 | AGTTGAGACT | 1.02
77 | AGTTGAGGTG | 1.1
78 | AGTTGATTAG | 1.01
79 | AGTTGATTTC | 0.948
80 | AGTTGCGCAA | 1.06
81 | AGTTGCTCGC | 1.05
82 | AGTTGCTGG | 1.03
83 | AGTTGGCGAC | 0.984
84 | AGTTGGTACC | 0.996
85 | AGTTGGTGCA | 0.964
86 | AGTTGTGTGA | 0.993
87 | AGTTTACAGA | 0.997
88 | AGTTTACTTG | 1.01
89 | AGTTTAGGTC | 1.01
90 | AGTTTCATC | 0.963
91 | AGTTTCCTTG | 0.991
92 | AGTTTTGCAC | 0.988
93 | AGTTTTGCGA | 0.936
94 | AGTTTTGGTT | 0.948
95 | ATAAAAGATG | 1.01
96 | ATAAAAGCGG | 1.04
97 | ATAAAAGTGA | 0.985
98 | ATAAAATAGG | 1
99 | ATAAACAAGT | 1.03
100 | ATAAACTCTA | 1.02

Row | Sequence | switch fluorescence ratio
101 | ATAAAGTTTT | 0.966
102 | ATAAATGGCC | 0.976
103 | ATAAATGTCT | 0.995
104 | ATAAATTCAC | 1.02
105 | ATAACAAGCT | 1.01
106 | ATAACACTGT | 1.07
107 | ATAACGACAT | 1.08
108 | ATAACGGGTT | 1.2
109 | ATAACTACTG | 1.17
110 | ATAACTCGTT | 1
111 | ATAACTGGGT | 0.989
112 | ATAACTGGTA | 1
113 | ATAAGCAAGG | 1.06
114 | ATAAGGTCAG | 1
115 | ATAAGGTTCG | 1.03
116 | ATAAGTAGGG | 0.959
117 | ATAAGTCCG | 0.993
118 | ATAATATCAA | 1.04
119 | ATAATCCATG | 1.02
120 | ATAATCCCCG | 1.03
121 | ATAATCCCCT | 1.17
122 | ATAATCGTTT | 0.989
123 | ATAATCTCAT | 0.984
124 | ATAATGGATG | 1.05
125 | ATAATTCACA | 1

Row | Sequence | switch fluorescence ratio
126 | ATAATTCATT | 0.987
127 | ATACACCCTT | 1.19
128 | ATACACCGAG | 1.08
129 | ATACACGAGG | 1.05
130 | ATACACTTAT | 1.04
131 | ATACATAAGA | 1.04
132 | ATACATACCG | 1.27
133 | ATACATGGGA | 1
134 | ATACATGTCA | 0.966
135 | ATACATTTAG | 1.02
136 | ATACCAAACG | 1.32
137 | ATACCGGGCA | 1.02
138 | ATACGACGCA | 2.02
139 | ATACGCCTGT | 1.25
140 | ATACGCGCGT | 0.988
141 | ATACGCTCGA | 0.982
142 | ATACGCTGAT | 1.1
143 | ATACGCTTTC | 1.52
144 | ATACGGGTT | 1.02
145 | ATACGTTGTC | 0.984
146 | ATACGTTTGC | 1.07
147 | ATACTAATAT | 1.03
148 | ATACTATGAC | 1.1
149 | ATACTCACTA | 1.17
150 | ATACTGATGT | 0.956

Row | Sequence | switch fluorescence ratio
151 | ATACTGGCG | 1.11
152 | ATACTGGCGA | 0.998
153 | ATACTGGTAT | 1.01
154 | ATACTTAAGA | 1
155 | ATACTTCAAC | 1.12
156 | ATACTTGTCT | 0.989
157 | ATACTTTTAG | 1.01
158 | ATAGAAACAA | 1
159 | ATAGAAGACT | 0.993
160 | ATAGAAGGAG | 0.991
161 | ATAGACAGGG | 0.994
162 | ATAGACATTG | 0.984
163 | ATAGACCAGG | 1.11
164 | ATAGACTATT | 0.981
165 | ATAGAGAGGA | 0.981
166 | ATAGAGCCGA | 0.933
167 | ATAGATCATT | 0.999
168 | ATAGCATGG | 1.03
169 | ATAGCCATTG | 1
170 | ATAGCCCTAT | 0.976
171 | ATAGGAACCT | 2.07
172 | ATAGGACGC | 1.01
173 | ATAGGCAAAA | 1.02
174 | ATAGGGGACC | 0.998
175 | ATAGGGTGAC | 0.988

Row | Sequence | switch fluorescence ratio
176 | ATAGGTAACG | 1.01
177 | ATAGGTGGAT | 1.01
178 | ATAGGTTGTG | 1.02
179 | ATAGTAACAG | 0.963
180 | ATAGTCTGCG | 1.02
181 | ATAGTGCATT | 1
182 | ATAGTGTTTA | 1.02
183 | ATAGTTAGGG | 1.04
184 | ATAGTTGTAT | 1.01
185 | ATATAAATGG | 1.04
186 | ATATACGCCC | 1.34
187 | ATATAGTCAT | 0.933
188 | ATATATCACC | 1.07
189 | ATATATGTGA | 1
190 | ATATCAAAGT | 0.982
191 | ATATCACACG | 1.03
192 | ATATCAGATT | 0.962
193 | ATATCCTTCG | 1.58
194 | ATATCGATG | 0.981
195 | ATATCGGTAT | 0.953
196 | ATATCTATTA | 0.965
197 | ATATCTCAGC | 1.03
198 | ATATCTCGGT | 1.02
199 | ATATCTGAAG | 1.03
200 | ATATGACAGG | 0.976
